This is one part of the list. Binding of human transcription factors and regulators to the viral nucleoprotein by AlphaScreen, crude cell-free proteins, amounts not normalised, one pass. Fold of the Venus control; higher = more signal. No active / inactive call. Single-pass screen; sequences are the whole Swiss-Prot entries looked up by name.
B1: CITED1, Q99966 (protein)
chain: MPTTSRPALDVKGGTSPAKEDANQEMSSVAYSNLAVKDRKAVAILHYPGVASNGTKASGAPTSSSGSPIGSPTTTPPTKPPSFNLHPAPHLLASMHLQKLNSQYQGMAAATPGQPGEAGPLQNWDFGAQAGGAESLSPSAGAQSPAIIDSDPVDEEVLMSLVVELGLDRANELPELWLGQNEFDFTADFPSSC
B2: TBX10, O75333 (protein)
chain: MAAFLSAGLGILAPSETYPLPTTSSGWEPRLGSPFPSGPCTSSTGAQAVAEPTGQGPKNPRVSRVTVQLEMKPLWEEFNQLGTEMIVTKAGRRMFPPFQVKILGMDSLADYALLMDFIPLDDKRYRYAFHSSAWLVAGKADPATPGRVHFHPDSPAKGAQWMRQIVSFDKLKLTNNLLDDNGHIILNSMHRYQPRFHVVFVDPRKDSERYAQENFKSFIFTETQFTAVTAYQNHRITQLKIASNPFAKGFRESDLDSWPVAPRPLLSVPARSHSSLSPCVLKGATDREKDPNKASASTSKTPAWLHHQLLPPPEVLLAPATYRPVTYQSLYSGAPSHLGIPRTRPAPYPLPNIRADRDQGGLPLPAGLGLLSPTVVCLGPGQDSQ
B3: TADA3, O75528 (protein)
chain: MSELKDCPLQFHDFKSVDHLKVCPRYTAVLARSEDDGIGIEELDTLQLELETLLSSASRRLRVLEAETQILTDWQDKKGDRRFLKLGRDHELGAPPKHGKPKKQKLEGKAGHGPGPGPGRPKSKNLQPKIQEYEFTDDPIDVPRIPKNDAPNRFWASVEPYCADITSEEVRTLEELLKPPEDEAEHYKIPPLGKHYSQRWAQEDLLEEQKDGARAAAVADKKKGLMGPLTELDTKDVDALLKKSEAQHEQPEDGCPFGALTQRLLQALVEENIISPMEDSPIPDMSGKESGADGASTSPRNQNKPFSVPHTKSLESRIKEELIAQGLLESEDRPAEDSEDEVLAELRKRQAELKALSAHNRTKKHDLLRLAKEEVSRQELRQRVRMADNEVMDAFRKIMAARQKKRTPTKKEKDQAWKTLKERESILKLLDG
B4: ATF3, P18847 (protein)
chain: MMLQHPGQVSASEVSASAIVPCLSPPGSLVFEDFANLTPFVKEELRFAIQNKHLCHRMSSALESVTVSDRPLGVSITKAEVAPEEDERKKRRRERNKIAAAKCRNKKKEKTECLQKESEKLESVNAELKAQIEELKNEKQHLIYMLNLHRPTCIVRAQNGRTPEDERNLFIQQIKEGTLQS

biological target: nucleoprotein N of Crimean-Congo hemorrhagic fever virus; experiment: AlphaScreen luminescence signal relative to Venus negative control (fold); higher = stronger binding to CCHFV N
Description: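 AlphaScreen binding of cell-free made, FLAG-GST-tagged human transcription factors and regulators (crude translation products) to biotinylated N protein; signal as fold of the FLAG-GST-Venus control. One pass.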

| Binder | AlphaScreen luminescence signal |
| --- | --- |
| B1 | 1.35 |
| B2 | 2.37 |
| B3 | 2 |
| B4 | 2.51 |

— the supplement of paper PMC12423691
